# Among all 220,000 compounds or so, about 5,700 (2.6%) were called active. Inconclusive means that the source gave no clear call. Such entries were picked first, then a sample of the others. Calls come from the whole dose curve; as a rule, active = well fitted inhibition curve with a large enough effect; inconclusive = small, poorly fitted or top-dose-only effect; inactive = no such curve, though single readings can be large or run the other way. Potencies of inconclusive entries are doubtful fits and often do not repeat.
# Target: Lysine-specific demethylase 5B (Homo sapiens) (UniProt Q9UGL1)
# Sequence of UniProt Q9UGL1 (Q9UGL1 whole entry, looked up): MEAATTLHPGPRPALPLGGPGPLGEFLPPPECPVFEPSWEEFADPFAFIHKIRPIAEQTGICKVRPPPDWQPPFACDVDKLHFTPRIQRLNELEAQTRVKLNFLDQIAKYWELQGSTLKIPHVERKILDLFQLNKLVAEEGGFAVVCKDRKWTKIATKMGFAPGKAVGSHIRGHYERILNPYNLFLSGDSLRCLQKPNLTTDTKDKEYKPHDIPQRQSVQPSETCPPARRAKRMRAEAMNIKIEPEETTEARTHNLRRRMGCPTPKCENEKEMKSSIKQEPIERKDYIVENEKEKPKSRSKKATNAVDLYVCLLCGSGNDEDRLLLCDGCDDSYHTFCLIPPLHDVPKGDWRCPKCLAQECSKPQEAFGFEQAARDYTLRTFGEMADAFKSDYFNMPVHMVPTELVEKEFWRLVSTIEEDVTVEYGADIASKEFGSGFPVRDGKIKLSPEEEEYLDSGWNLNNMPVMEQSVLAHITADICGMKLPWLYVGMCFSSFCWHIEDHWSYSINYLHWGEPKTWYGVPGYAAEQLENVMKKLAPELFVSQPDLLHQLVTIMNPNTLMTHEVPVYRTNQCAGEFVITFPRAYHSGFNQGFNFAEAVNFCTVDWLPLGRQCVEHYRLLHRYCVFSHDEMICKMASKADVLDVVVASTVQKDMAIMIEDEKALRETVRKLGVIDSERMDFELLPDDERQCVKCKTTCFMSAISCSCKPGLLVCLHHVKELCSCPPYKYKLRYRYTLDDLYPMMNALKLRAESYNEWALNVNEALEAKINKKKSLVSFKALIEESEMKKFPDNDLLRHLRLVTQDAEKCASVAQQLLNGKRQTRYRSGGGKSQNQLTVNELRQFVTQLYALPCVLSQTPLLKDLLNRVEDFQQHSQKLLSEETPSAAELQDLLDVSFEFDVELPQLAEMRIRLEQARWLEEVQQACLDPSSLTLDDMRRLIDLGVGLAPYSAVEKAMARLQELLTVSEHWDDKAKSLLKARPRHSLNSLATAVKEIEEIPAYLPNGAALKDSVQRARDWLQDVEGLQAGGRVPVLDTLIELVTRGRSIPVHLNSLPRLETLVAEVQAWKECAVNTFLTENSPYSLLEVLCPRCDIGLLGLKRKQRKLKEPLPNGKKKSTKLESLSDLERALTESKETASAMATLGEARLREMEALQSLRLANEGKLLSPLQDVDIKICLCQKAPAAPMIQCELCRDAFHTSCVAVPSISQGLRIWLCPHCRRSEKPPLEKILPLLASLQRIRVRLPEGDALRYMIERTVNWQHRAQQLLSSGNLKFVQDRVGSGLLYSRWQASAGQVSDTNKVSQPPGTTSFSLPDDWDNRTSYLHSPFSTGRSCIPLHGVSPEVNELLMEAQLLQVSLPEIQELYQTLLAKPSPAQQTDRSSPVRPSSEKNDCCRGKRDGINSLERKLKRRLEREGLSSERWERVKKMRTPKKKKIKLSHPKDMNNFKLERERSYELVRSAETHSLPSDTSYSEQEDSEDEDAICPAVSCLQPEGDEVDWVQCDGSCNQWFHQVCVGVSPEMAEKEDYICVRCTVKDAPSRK
# Assay: Primary screen for KDM5B Histone Demethylases FDH-coupled qHTS; note: nearly all actives have a fitted effect of over 70% in size
# Conditions: FDH-coupled NADH fluorescence (FDH is formaldehyde dehydrogenase); series mostly up to 57.7 µM
# Outline: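 KDM5BΔAP (200 nM final) in 50 mM HEPES pH 7.5, 0.01% Tween-20 was preincubated 10 min at RT with compound over a concentration range. Substrate mix (H3K4me3 12.5 µM, α-KG 25 µM, Fe²⁺, ascorbate, NAD⁺, FDH) was added, and NADH fluorescence change over 30 min gave dose-response curves.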
# Potency is the fitted concentration of half-maximal effect; tags give direction and shape of the fitted curve.
row,SMILES,Potency
1,CCCNC(=O)C(NC(=O)c1ccccc1C)C1CCN(C(=O)c2ccco2)CC1 (stereo unspecified),inactive
2,Cc1c(CN(C)C(=O)CC2C(=O)NCCN2CC(C)(C)C)[nH]c2ccccc12 (stereo unspecified),"inconclusive: 28.2 µM [inhibitor, single point]"
3,O=c1c2cc(-c3cccs3)nn2ccn1CC(O)c1cccc(Cl)c1 (stereo unspecified),active: 20 µM
4,CSc1ccc(C2N=C(N)Nc3nc4ccccc4n32)cc1 (stereo unspecified),inactive
5,O=C(O)C/C(=C/c1cccc(Oc2ccc(Cl)cc2)c1)c1nc2ccccc2s1,"inconclusive: 22.4 µM [inhibitor, single point]"
6,Cc1[nH]c2cc3c(-c4ccccc4)cc(-c4ccccc4)nc3cc2c1C,inactive
7,O=C(c1ccco1)N1CCN(c2nc3c(F)cc(F)cc3s2)CC1,"inconclusive: 15.8 µM [inhibitor, partial curve, poor fit]"
8,Cc1ccc(-c2cc(C(=O)OCC(=O)N3CCCC3=O)c3ccccc3n2)o1,"inconclusive: 25.1 µM [inhibitor, partial curve, poor fit]"
9,O=S(=O)(c1ccc(Cl)cc1)c1nc(-c2cccc(Br)c2)oc1NCc1ccccc1,"inconclusive: 28.2 µM [inhibitor, partial curve, poor fit]"
10,O=C(c1cccc(F)c1)N1CCCC(n2cc(-c3nc(C4CC4)no3)nn2)C1 (stereo unspecified),inactive
11,Cc1cccc(OCC(=O)N2CCCN(c3cc(-c4ccc(Cl)cc4)[nH]n3)CC2)c1,active: 14.1 µM
12,CC(C)c1nc2c(c(-c3ccc(O)cc3)n1)CN(C(=O)c1cccc(Cl)c1)CC2,inactive
13,Cc1ccc(NC(=O)N2CCc3c(c4ccccc4n3C)C2)cc1C,active: 31.6 µM
14,Cc1ccc(C2=NN(S(C)(=O)=O)C(c3ccc(F)cc3)C2)cc1 (stereo unspecified),inactive
15,COc1ccc(-c2nnc(SCC(=O)Nc3cc(OC)ccc3OC)nc2-c2ccc(OC)cc2)cc1,"inconclusive: 25.1 µM [inhibitor, partial curve, poor fit]"
16,Cc1noc(C)c1-c1cc2cc(CO)oc2c(Nc2cccnc2)n1,"inconclusive: 31.6 µM [inhibitor, partial curve, poor fit]"
17,CCOc1ccccc1CN1CCC2(CC1)CC(C(=O)N1CCOCC1)N(C)C2 (stereo unspecified),"inconclusive: 28.2 µM [inhibitor, partial curve, poor fit]"
18,COc1ccc2c(C)c(CC(=O)NCc3ccccc3)c(=O)oc2c1OC,"inconclusive: 8.91 µM [inhibitor, full curve, poor fit]"
19,O=C(COc1ccc(Br)cc1)Nc1ccc2c(=O)c3ccccc3oc2c1,"inconclusive: 28.2 µM [inhibitor, partial curve, poor fit]"
20,O=C(C1=Cc2sc3c(c2CS1)CCCC3)N1CCC2(CC1)OCCO2,"inconclusive: 25.1 µM [inhibitor, partial curve, poor fit]"
21,COc1ccc(NC(=S)N[C@H]2C[C@H]3C(=O)NC[C@@H](CCC(=O)NC4CC4)N3C2)cc1,"inconclusive: 35.5 µM [inhibitor, single point]"
22,CC(C)(C)NC(=O)CSc1ncc(-c2ccc(Cl)cc2)o1,inactive
23,COc1cc2c(cc1OC)-c1c(c(C(=O)NCCN3CCOCC3)nn1-c1ccc(F)cc1)C2,"inconclusive: 22.4 µM [inhibitor, single point]"

row,SMILES,Potency
1,CCCCCCCCCCNC(=S)Nc1ccccc1,inactive
2,O=c1cc(-c2ccccn2)oc2c(-c3ccc(CO)cc3)nccc12,active: 28.2 µM
3,CCS(=O)(=O)N1CCc2ccc(NC(=O)NCCC(C)C)cc21,inactive
4,COc1ccc(CN2CCNc3cc(-c4ccccc4)ncc3C2)cc1,"inconclusive: 39.8 µM [inhibitor, partial curve, poor fit]"
5,COc1ccc(C2=C(O)C(=O)N(Cc3ccc(Cl)cc3)C2c2ccccc2F)cc1 (stereo unspecified),inactive
6,COc1ccc(C2=NS(=O)(=O)N(C)C(C(=O)Nc3ccn(Cc4ccccc4C)n3)=C2)cc1,inactive
7,Cc1nc2ccccn2c1-c1ccnc(=S)[nH]1,"inconclusive: 39.8 µM [inhibitor, partial curve, poor fit]"
8,CN(C)c1ccc(/C=N/NC(=O)CNC(=O)c2ccncc2)cc1,"inconclusive: 20 µM [inhibitor, partial curve, poor fit]"
9,CCCC(C)(C)NC(=O)Cc1cc(OC)c(OC)c(OC)c1,inactive
10,CCNCc1ccc(-c2ccccc2F)o1,inactive
11,Cn1nc(C(=O)Nc2sc3c(c2C#N)CCCC3)c(Cl)c1C(F)(F)F,"inconclusive: 39.8 µM [inhibitor, single point]"
12,CCCn1nc(C(=O)OCC#N)c2ccccc2c1=O,inactive
13,Cc1ccc(NC(=O)c2ccc(F)cc2Cl)nc1,inactive
14,O=C(Nc1cccc(Cl)c1)c1ccc(N2CC3CC(C2)[C@H]2CCCC(=O)N2C3)nc1 (stereo partly specified),"inconclusive: 25.1 µM [inhibitor, single point]"
15,Cc1noc2c(NCCCn3ccnc3)cc(-c3cccs3)nc12,inactive
16,CCc1ccc(CNc2ncncc2-c2nc(-c3ccccc3)no2)cc1,active: 28.2 µM
17,CCc1n[nH]c(CC2CCN(C(=O)c3ccccc3)CC2)n1,active: 22.4 µM
18,O=C(NCc1ccc2c(c1)CCN2C(=O)c1ccncc1)c1ccccc1Cl,"inconclusive: 17.8 µM [inhibitor, partial curve, poor fit]"
19,Cc1cc(C(=O)OCC(=O)NC2(C#N)CCCCC2)c2ccccc2n1,inactive
20,COc1ccc(CNC(=O)CC[C@H]2CNC(=O)[C@@H]3[C@@H](CCN3Cc3cccc(Cl)c3)N2C)cc1,"inconclusive: 14.1 µM [inhibitor, partial curve, poor fit]"
21,COc1ccc(OC)c(CCNC(=O)c2cc3cccc4c3n2CC(C)S4)c1 (stereo unspecified),"inconclusive: 35.5 µM [inhibitor, partial curve, poor fit]"
22,CC(=O)Nc1cc(-c2cc(C(=O)NCc3cccnc3)c3c(c2)N(C)CCO3)ccn1,"inconclusive: 28.2 µM [inhibitor, partial curve, poor fit]"
23,CC(C)Nc1nc(-c2ccc(S(=O)(=O)N3CCCCCC3)cc2)cs1,"inconclusive: 12.6 µM [inhibitor, partial curve, poor fit]"

# Source: PubChem BioAssay AID1347165 (National Center for Advancing Translational Sciences (NCATS), 2019)
